The text below walks through data of the supplement of paper PMC4604168 (melanoma cell lines).

SMILES strings stand for the structures. The list shows a part of the results. Many values rest on one well or one pass, so single values are uncertain.
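Note: cell number obtained by counting DAPI-stained nuclei in high-throughput microscope images with image analysis software, screen run in 1,536-well plates.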

The first assay relates to UACC62. In words: cell count relative to DMSO control; melanoma cells; higher = more viable cells. Particulars: library dose: low library concentration; 72 h.
`CN(NC(=O)CC(=O)NN(C)C(=S)c1ccccc1)C(=S)c1ccccc1` + Cc1cc([N+](=O)[O-])ccc1NS(=O)(=O)c1cc(Cl)ccc1Cl [FH535] (first compound 0.006 µM, partner dose 1 µM) had a cell count of 86.4%.

`CC(C)(C)c1cnc(CSc2cnc(NC(=O)C3CCNCC3)s2)o1` + CCCCCCCCCCCC1=C(O)C(=O)C=C(O)C1=O [Embelin] (first compound 0.01 µM, partner dose 1.2 µM) came in with a cell count of 85.1%.

`Cc1ccc(NC(=O)c2cccc(N(C)C)c2)cc1NC(=O)c1ccc(O)cc1` + O=C1NC(=O)/C(=C/c2ccc(-c3ccc(F)cc3O)o2)S1 [AS252424] (first compound 2 µM, partner dose 1 µM) had a cell count of 111%.

As to `CC(C)(C)c1cnc(CSc2cnc(NC(=O)C3CCNCC3)s2)o1` + CCN(CC)CCCCNc1ncc2cc(-c3cc(OC)cc(OC)c3)c(NC(=O)NC(C)(C)C)nc2n1 [PD173074] (first compound 0.01 µM, partner dose 0.1 µM), the cell count was found to be 80.9%.

`Cc1ccc(NC(=O)c2cccc(N(C)C)c2)cc1NC(=O)c1ccc(O)cc1` + COc1ccc(-c2ccc3c(N4CCOCC4)nc(N4C[C@@H](C)O[C@@H](C)C4)nc3n2)cc1CO [KU0063794] (first compound 2 µM, partner dose 0.02 µM) had a cell count of 82.9%.

Regarding `Cc1ccc(NC(=O)c2cccc(N(C)C)c2)cc1NC(=O)c1ccc(O)cc1` + O=C(Nc1ccccc1)c1cc([N+](=O)[O-])ccc1Cl [GW9662] (first compound 2 µM, partner dose 2 µM), the cell count was 91.7%.

In the case of `CCc1ccc(CCOc2ccc(CC3SC(=O)NC3=O)cc2)nc1` (stereo not given) [pioglitazone] + COc1ccc(-c2ccc3c(N4CCOCC4)nc(N4C[C@@H](C)O[C@@H](C)C4)nc3n2)cc1CO [KU0063794] (first compound 2 µM, partner dose 0.02 µM), the cell count amounted to 94.5%.

As for `COc1cc2c(Oc3ccc4[nH]c(C)cc4c3F)ncnc2cc1OCCCN1CCCC1` [cediranib] + COC(=O)c1sccc1S(=O)(=O)Nc1ccc(Nc2ccccc2)cc1OC [GSK0660] (first compound 0.4 µM, partner dose 1 µM), the cell count worked out at 89.6%.

Take `CN(NC(=O)CC(=O)NN(C)C(=S)c1ccccc1)C(=S)c1ccccc1` + COc1ccc(-c2ccc3c(N4CCOCC4)nc(N4C[C@@H](C)O[C@@H](C)C4)nc3n2)cc1CO [KU0063794] (first compound 0.006 µM, partner dose 0.02 µM): the cell count stood at 78.4%.

In turn, `CCc1ccc(CCOc2ccc(CC3SC(=O)NC3=O)cc2)nc1` (stereo not given) [pioglitazone] + COc1ccc(COc2ccc(Cc3cnc(N)nc3N)cc2OC)cc1 [GW2580] (first compound 2 µM, partner dose 1 µM) returned a cell count of 106%.

In the case of `Cc1ccc(NC(=O)c2cccc(N(C)C)c2)cc1NC(=O)c1ccc(O)cc1` + CCCCCCCCCCCC1=C(O)C(=O)C=C(O)C1=O [Embelin] (first compound 2 µM, partner dose 1.2 µM), the cell count was 95.8%.

For the compound `Cc1ccc(NC(=O)c2cccc(N(C)C)c2)cc1NC(=O)c1ccc(O)cc1` + CCN(CC)CCCCNc1ncc2cc(-c3cc(OC)cc(OC)c3)c(NC(=O)NC(C)(C)C)nc2n1 [PD173074] (first compound 2 µM, partner dose 0.1 µM), the cell count is 86.9%.

In turn, `CCc1ccc(CCOc2ccc(CC3SC(=O)NC3=O)cc2)nc1` (stereo not given) [pioglitazone] + CCCCCCCCCCCC1=C(O)C(=O)C=C(O)C1=O [Embelin] (first compound 2 µM, partner dose 1.2 µM) came in with a cell count of 109%.

For the compound `COc1cc2c(Oc3ccc4[nH]c(C)cc4c3F)ncnc2cc1OCCCN1CCCC1` [cediranib] + CCCCCCCCCCCC1=C(O)C(=O)C=C(O)C1=O [Embelin] (first compound 0.4 µM, partner dose 1.2 µM), the cell count was determined as 99.7%.

`CC(C)(C)c1cnc(CSc2cnc(NC(=O)C3CCNCC3)s2)o1` + Cc1cc([N+](=O)[O-])ccc1NS(=O)(=O)c1cc(Cl)ccc1Cl [FH535] (first compound 0.01 µM, partner dose 1 µM) returned a cell count of 76.2%.

Consider `CC(C)(C)c1cnc(CSc2cnc(NC(=O)C3CCNCC3)s2)o1` + N#Cc1c(O)c2c(-c3ccc(-c4ccccc4O)cc3)csc2[nH]c1=O [A769662] (first compound 0.01 µM, partner dose 2 µM), for which the cell count worked out at 90.7%.

The subject of the next assay is WM115. The assay is described as above. As to conditions: library dose: low library concentration; 72 h.
As to `CC(C)(C)c1cnc(CSc2cnc(NC(=O)C3CCNCC3)s2)o1` + COc1ccc2c(c1)CCC1C2CCC2(C)C(NCCCCCCN3C(=O)C=CC3=O)CCC12 [U73122] (first compound 0.01 µM, partner dose 0.4 µM), the cell count stood at 114%.

The compound `CC(C)(C)c1cnc(CSc2cnc(NC(=O)C3CCNCC3)s2)o1` + Oc1cc(-c2nc(-c3ccccc3)[nH]c2-c2ccncc2)ccc1Cl [L779450] (first compound 0.01 µM, partner dose 0.2 µM) had a cell count of 91.9%.

In turn, `CC(C)(C)c1cnc(CSc2cnc(NC(=O)C3CCNCC3)s2)o1` + Cn1cc(/C=C2\C(=O)Nc3cccnc32)c2ccccc21 [GW441756] (first compound 0.01 µM, partner dose 0.4 µM) yielded a cell count of 88%.

In the case of `CN(NC(=O)CC(=O)NN(C)C(=S)c1ccccc1)C(=S)c1ccccc1` + COc1cc2ncnc(Nc3ccc(Oc4ccccc4)cc3)c2cc1OC [SrcI1] (first compound 0.006 µM, partner dose 2 µM), the cell count stood at 86%.

For the compound `CCc1ccc(CCOc2ccc(CC3SC(=O)NC3=O)cc2)nc1` (stereo not given) [pioglitazone] + c1cc(-c2cnn3cc(-c4ccc(OCCN5CCCCC5)cc4)cnc23)ccn1 [Dorsomorphin] (first compound 2 µM, partner dose 0.4 µM), the cell count stood at 99.9%.

Consider `Cc1ccc(NC(=O)c2cccc(N(C)C)c2)cc1NC(=O)c1ccc(O)cc1` + Cn1cc(/C=C2\C(=O)Nc3cccnc32)c2ccccc21 [GW441756] (first compound 2 µM, partner dose 0.4 µM), for which the cell count is 97.7%.

As for `CN(NC(=O)CC(=O)NN(C)C(=S)c1ccccc1)C(=S)c1ccccc1` + O=c1cc(-c2cccc3c2Sc2ccccc2S3)oc(N2CCOCC2)c1 [KU55933] (first compound 0.006 µM, partner dose 1 µM), the cell count is 77.5%.

As to `CC(C)(C)c1cnc(CSc2cnc(NC(=O)C3CCNCC3)s2)o1` + O=C1NC(=O)/C(=C/c2ccc(-c3ccc(F)cc3O)o2)S1 [AS252424] (first compound 0.01 µM, partner dose 1 µM), the cell count stood at 88.7%.

`CN(NC(=O)CC(=O)NN(C)C(=S)c1ccccc1)C(=S)c1ccccc1` + O=C(Nc1ccccc1)c1cc([N+](=O)[O-])ccc1Cl [GW9662] (first compound 0.006 µM, partner dose 2 µM): the cell count is 84.5%.

The compound `COc1cc2c(Oc3ccc4[nH]c(C)cc4c3F)ncnc2cc1OCCCN1CCCC1` [cediranib] + O=C(O)C(=O)Nc1sc2c(c1C(=O)O)CCNC2 [TCS401] (first compound 0.4 µM, partner dose 1.66667 µM) came in with a cell count of 96.5%.

For the compound `CC(C)(C)c1cnc(CSc2cnc(NC(=O)C3CCNCC3)s2)o1` + O=c1cc(-c2cccc3c2Sc2ccccc2S3)oc(N2CCOCC2)c1 [KU55933] (first compound 0.01 µM, partner dose 1 µM), the cell count stood at 102%.

As to `COc1cc2c(Oc3ccc4[nH]c(C)cc4c3F)ncnc2cc1OCCCN1CCCC1` [cediranib] + CCc1ccc(CCOc2ccc(CC3SC(=O)NC3=O)cc2)nc1 [pioglitazone] (first compound 0.4 µM, partner dose 2 µM), the cell count came to 102%.

`CN(NC(=O)CC(=O)NN(C)C(=S)c1ccccc1)C(=S)c1ccccc1` + O=C(O)C(=O)Nc1sc2c(c1C(=O)O)CCNC2 [TCS401] (first compound 0.006 µM, partner dose 1.66667 µM): the cell count came to 97.6%.

With `CN(NC(=O)CC(=O)NN(C)C(=S)c1ccccc1)C(=S)c1ccccc1` + Cn1cc(/C=C2\C(=O)Nc3cccnc32)c2ccccc21 [GW441756] (first compound 0.006 µM, partner dose 0.4 µM), the cell count was determined as 78.3%.

`Cc1ccc(NC(=O)c2cccc(N(C)C)c2)cc1NC(=O)c1ccc(O)cc1` + CCc1ccc(CCOc2ccc(CC3SC(=O)NC3=O)cc2)nc1 [pioglitazone] (first compound 2 µM, partner dose 2 µM): the cell count stood at 107%.

The compound `COc1cc2c(Oc3ccc4[nH]c(C)cc4c3F)ncnc2cc1OCCCN1CCCC1` [cediranib] + N#Cc1c(O)c2c(-c3ccc(-c4ccccc4O)cc3)csc2[nH]c1=O [A769662] (first compound 0.4 µM, partner dose 2 µM) had a cell count of 94.9%.

`CCc1ccc(CCOc2ccc(CC3SC(=O)NC3=O)cc2)nc1` (stereo not given) [pioglitazone] + Cc1cc([N+](=O)[O-])ccc1NS(=O)(=O)c1cc(Cl)ccc1Cl [FH535] (first compound 2 µM, partner dose 1 µM) showed a cell count of 84.7%.

`CCc1ccc(CCOc2ccc(CC3SC(=O)NC3=O)cc2)nc1` (stereo not given) [pioglitazone] + COC(=O)c1sccc1S(=O)(=O)Nc1ccc(Nc2ccccc2)cc1OC [GSK0660] (first compound 2 µM, partner dose 1 µM) returned a cell count of 101%.

The compound `COc1cc2c(Oc3ccc4[nH]c(C)cc4c3F)ncnc2cc1OCCCN1CCCC1` [cediranib] + COc1ccc(COc2ccc(Cc3cnc(N)nc3N)cc2OC)cc1 [GW2580] (first compound 0.4 µM, partner dose 1 µM) displayed a cell count of 95%.
